Laboratory results taken from the RNAGym collection of RNA variant scans (doi:10.1073/pnas.2313332121).
Variants at the floor of the assay are shown more often than the library holds them.

B1: TPR 5TU (parent)
chain: GGAUCUUCUCGAUCUAACAAAAAAGACAAAUCUGCCACAAAGCUUGAGAGCAUCUUCGGAUGCAGAGGCGGCAGCCUUCGGUGGCGCGAUAGCGCCAACGUUCUCAACUAUGACACGCAAAACGCGUGCUCCGUUGAAUGGAGUUUAUCAUG

Variants of: B1
Experiment: polymerase ribozyme fitness, log enrichment relative to wild type (log ratio); higher = more active; in vitro selection for triplet polymerase activity
Method in brief: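 Mutant libraries of each subunit of a heterodimeric triplet polymerase ribozyme were built by PCR and transcribed. Each library went through one round of in vitro selection in triplicate: annealing with biotinylated primer, partner subunit and triplets, frozen incubation at −7 °C, gel excision of extended constructs, streptavidin-bead capture and RT-PCR. Input and output libraries were Illumina-sequenced; only genotypes with ≥10 input reads and ≥1 read per output were kept. Fitness is log2(genotype enrichment/wild-type enrichment), using inverse-variance-weighted replicate averages.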
With GGAUCUUCUCGAUCUAACAAAAAAGACAAAUCUGCCUCAAAACUUGAGAGCAUGUUCGGAUGCAGAGGCGGCAGCCUUCGGUGGCUCGAUAGCGCCAACGUUCUCAACUAUGACACGCAAAACGCGUGCUCCGUUGAAUGGAGUUUAUCAUG [A37U G42A C54G G86U] the “polymerase ribozyme fitness (log ratio)” value was at most -4.2. In the case of GGAUCUUCUCGAUCUAACAAAAAAGACAAAUCUGCCUCAAGGCUUGAGAGCAUCGUCGGAUGCAGAGGCGGCAGCCUUCGGUGGUGCGAUAGCGCCAACGUUCUCAACUAUGACACGCAAAACGCGUUUUCCGUUGAAUGGAGUUUAUCAUG [A37U A41G U55G C85U G128U C129U], the “polymerase ribozyme fitness (log ratio)” value is reported as at most -4.2. In the case of GGAUCUUCUCGAUCUAACAAAAAAGACAAAUCUGCCUCAAAGCUUGAGAGCAUCUUCGGGUGCAGAGGCGGCAGCUUUCGGUGGCGCAAUAGCGCCAACGUUCUCAACUAUGACACGCAAAACGCGUGCUCCGUUGAAUGGAGUUUAUCAUG [A37U A60G C76U G88A], the “polymerase ribozyme fitness (log ratio)” value is reported as at most -4.2. With GGAUCUUCUCGAUCUAACAAAAAAGACAAAUCUGCCUCAACGCUUGAGAGCAUCUUCGGAUGCAGAGGCGGCAGCCUUCGGUGGCGCGAUAGCGCCAAUGUUCUCAACUAUGACACGCAAAACGCGUGCUCCGUUGAAUGGACUUUAUCAUG [A37U A41C C99U G143C] the “polymerase ribozyme fitness (log ratio)” value was at most -4.2. With GGAUCUUCUCGAUCUAACAAAAAAGACAAAUCUGCCGCAAAGCUUGAGAGCAACUUCGGAUGCAGAGGCGGCAGCCUUCGGUGGCGCGAUAGCUCCAACGUUCUCAACUAUGAUACGCAAAACGCGUGCUCCGUUGAAUAGAGUUUAUCAUG [A37G U53A G94U C114U G140A] the “polymerase ribozyme fitness (log ratio)” value was at most -4.2. For GGAUCUUCUCGAUCUAACAAAAAAGACAAAUCUGCCUCAAAGCUUGAGUGCAUCAACGGAUGCAGAGGCGGCAGCCUUCGGUGGCGCGAUAGCGCCAACGUUCUCAACUAUGACACGCAAAACGCGAGCUCCGUUGAAUGGAGUUUAUCAUG [A37U A49U U55A U56A U127A], the “polymerase ribozyme fitness (log ratio)” value was at most -4.2. With GGAUCUUCUCGAUCUAACAAAAAAGACAAAUCUGCCUCAAAGCUUGCGAGCAUCUUCGGUUGCAGAGGCGGCAGCCUUCUGUGGCGCGAUAGCGCCAACGUUCUCAACUAUGACACGCUAAACGGGUGCUCCGUUGAAUGGAGUUUAUCAUG [A37U A47C A60U G80U A119U C125G] the “polymerase ribozyme fitness (log ratio)” value was at most -4.2. In the case of GGAUCUUCUCGAUCUAACAAAAAAGACAAAUCUGCCGCAAAGCUUGAGAGCAUCUUCGGAUGCAGAGGCGGCAGCCUUCGGUAGCGCGAUAGGGCCAACGUUCUCAACUAUGACACGCAAAACGCGUACCCCGUAGAAUGGCGUUUAUCAUG [A37G G83A C93G G128A U130C U135A A142C], the “polymerase ribozyme fitness (log ratio)” value is reported as at most -4.2. For GGAUCUUCUCGAUCUAACAAAAAAGACAAAUCUGCCUCAAAGCUUGAGAGCAUAUUCGGAUGCAGAGGCGGCAGCCAUCGGUGGGGCGAGAGCGCCAACGUUCUCAACUAUGACACGGAAAACGCGUGCUCCGUUGAGUGGAGUUUAUCAUG [A37U C54A U77A C85G U90G C118G A138G], the “polymerase ribozyme fitness (log ratio)” value was at most -4.2. For GGAUCUUCUCGAUCUAACAAAAAAGACAAAUCUGCCUCAAAGUUUGAGAGCAUCUUCGGAUGCAGAGGCGGCAGGCUUCGGUGGCGCAAUAGCGCCAACGUUCUCAACUAUGAUACGCAAAACGCGUGCUCCGUUGAAUGGAGUUUAUCAUG [A37U C43U C75G G88A C114U], the “polymerase ribozyme fitness (log ratio)” value was at most -4.2. For GGAUCUUCUCGAUCUAACAAAAAAGACAAAUCUGCCUCAAAGCUUGAGAGCAUCUUAGGAUGCAGAGGCUACAGCCUUCGGUGGCGCGAUAGCGCCAACGUUCUCAACUAUGACACGCAAAACGCGUGCUCCGUUGGAUGGAGUUUAUCAUG [A37U C57A G70U G71A A137G], the “polymerase ribozyme fitness (log ratio)” value was at most -4.2. With GGAUCUUCUCGAUCUAACAAAAAAGACAAAUCUGCCUCAAAGCUUGAGAGCAUCUUCGGAUGCAGUGGCGGCAGCCUUCGGUGGCGCGAUAGCGCGAACGUUCUCAACUAUGACACGCAAAACGCGUGCUCCGUUGAAUGGAGUUUAUCAUG [A37U A66U C96G] the “polymerase ribozyme fitness (log ratio)” value was at most -4.2. With GGAUCUUCUCGAUCUAACAAAAAAGACAAAUCUGCCUCAAGGCUUGAGAGCAUCUUCGGAUGCAGAGGCGGCAGCCUUCGGUGGCGCGAUUGCGUCAACGUUCUCAACUAUGACACGCAAAACGCGUGCUCCGUUGAAUGGACUUUAUCAUG [A37U A41G A91U C95U G143C] the “polymerase ribozyme fitness (log ratio)” value was at most -4.2. In the case of GGAUCUUCUCGAUCUAACAAAAAAGACAAAUCUGCCUCAAAGCUUGAGAGCAUCUUCGGAUGCAGAGGCGGCAGCCUUCGGUGGCGCGAUAGCGCCAACGUUGUCAACUAUGACUCGCAAAACGCGUUCUCCGUUGAAUGGAGUUUAUCAUG [A37U C103G A115U G128U], the “polymerase ribozyme fitness (log ratio)” value is reported as at most -4.2. With GGAUCUUCUCGAUCUAACAAAAAAGACAAAUCUGCCUCAAAGCUUGAGAGCAUUUUCGGAUGCAGAGGCGGCAGCCUUCGGUGGCGCGAUAGCGGCAACGUUCUCAACUAUGACACGCAAAACGCGUGCUCCGCUCAAUGCAGUUUAUCAUG [A37U C54U C95G U134C G136C G141C] the “polymerase ribozyme fitness (log ratio)” value was at most -4.2. In the case of GGAUCUUCUCGAUCUAACAAAAAAGACAAAUCUGCCUCAAAGCUUGAGAGCAUCUUCGGAUGCAGAGGCGGCAGCCUUUGGUGGCGCGAUAGCGCCAACGUUCUCAACUAUGACAAGCAAAACGCGUGCUCCGUUGAAUGGAGUUUAUCAUG [A37U C79U C116A], the “polymerase ribozyme fitness (log ratio)” value is reported as -4.15. In the case of GGAUCUUCUCGAUCUAACAAAAAAGACAAAUCUGCCGCAAAGCUUGAGAGCAUCUUCGGAUGCAGAGGCGGCAGCCUUCGGUAGCGCGAUAGCGCCAACGUUCGCAACUAUGACACGCAAAACGCAUGCUCCGUUGAAUGGAGUUUAUCGUG [A37G G83A U104G G126A A150G], the “polymerase ribozyme fitness (log ratio)” value is reported as at most -4.2. For GGAUCUUCUCGAUCUAACAAAAAAGACAAAUCUGCCGCAAAGCUUGAGAGCAUCUUCGGAUGCAGAGGCGGCAGCCUUCGGUGGCGCCAUAGCGCCAACGUUCUUAAAUAUGAAACGCAAAACGCGUGCUCCGUUGAAUGGAGUUUAUCAUG [A37G G88C C105U C108A C114A], the “polymerase ribozyme fitness (log ratio)” value was at most -4.2. For GGAUCUUCUCGAUCUAACAAAAAAGACAAAUCUGCCGCAAAGCUUGAGAGCAUCUUCGGAUGCAGAGGCGGCAGCCUUCGGUGGCUCGAUAGCGGCAACGUUCUCUACUAUGACACGCAAAACGCGUGCUCCGUAGAAUGGAGUUUAUCAUG [A37G G86U C95G A106U U135A], the “polymerase ribozyme fitness (log ratio)” value was at most -4.2.
